In PubChem BioAssay AID1347417 (National Center for Advancing Translational Sciences (NCATS), 2020):
The campaign covered roughly 120,000 compounds. About 5,300 (4.4%) were called active. The shares of active, inactive and inconclusive entries below differ from those in the screen. The call rests on the fitted dose curve; in most records, active means well fitted inhibition curve with a large enough effect; inconclusive means small, poorly fitted or top-dose-only effect; inactive means no such curve, though single readings can be large or run the other way. A potency beside an inconclusive call is a rough fit, not a confirmed value.

Test: qHTS Primary assay for Inhibitors of Plasmodium falciparum Dd2 growth in vitro; further: nearly all actives have a fitted effect of over 65% in size;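 on activity, negative = inhibition: plate controls were DMSO vehicle for no effect and reference drug for full effect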
Conditions: P. falciparum Dd2 growth, SYBR Green, 72 h; activity, negative = inhibition: at 28.9 µM (top of the series) unless noted; series mostly up to 28.9 µM
Summary of the method: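 Infected erythrocytes (Dd2, 0.3% parasitemia, 2.5% hematocrit final) are added to compound in RPMI-1640/Albumax II medium, grown 72 h at 37C in low oxygen, then lysed with saponin/Triton-X containing SYBR Green and read by fluorescence.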
Potency means the concentration at half of the fitted maximal effect; tags describe the fitted curve by direction and shape.

With OC(CNc1nccc(-c2cccnc2)n1)COc1ccc(Cl)cc1 (stereo not given) as the molecule, how does the Potency read?
Its Potency is active: 14.1 µM.

For CCC(O)c1cc2n(n1)CCN(c1nc(-c3ccccc3)nc3c1CCC3)C2 (stereo not given), which Potency is on record?
Its Potency is inconclusive: 17.8 µM [inhibitor, single point].

Which Potency does the source give for Cc1ncccc1C(=O)N1CC(Oc2ccccc2-c2nc(-c3ccccc3)no2)C1 here?
Its Potency is active: 11.2 µM.

Which Potency does the source give for COc1cccc(CN2C(=O)OC3(CCN(Cc4c[nH]c5ccccc45)CC3)C2(C)c2cccnc2)c1 (stereo not given) here?
The Potency was active: 0.794 µM.

With O=C1OC2(CN1CCOc1ccccc1)CN(C(=O)c1ccc(Oc3ccccc3)cc1)C2 as the molecule, how does the Potency read?
Its Potency is inconclusive: 15.8 µM [inhibitor, single point].

Which “activity, negative = inhibition” value does the source give for O=C1N(CCc2ccccc2)CCOC12CCN([S+](=O)([O-])c1cccnc1)CC2 here?
Its value is inactive: -10.6% [at 44.1 µM].

With O=C(c1ccc(Cl)cc1)N1CC2(CCCN(Cc3cccnc3)C2)Cc2ccccc21 (stereo not given) as the molecule, how does the Potency read?
Its Potency is inconclusive: 10 µM [inhibitor, single point].

With CCc1ccc(NC(=O)Cn2c(-c3ccc(Cl)cc3)nc(C)c(CCO)c2=O)cc1 as the molecule, how does the “activity, negative = inhibition” value read?
The value was inactive: -11.7%.

For Cc1cc(Br)ccc1NC(=O)c1ccc(NS(=O)(=O)c2c(C)noc2C)cc1, which Potency is on record?
The Potency was inconclusive: 1.41 µM [inhibitor, partial curve].

For COc1ccc(CNCCC(c2ccccc2)c2ccc3c(c2)OCO3)cc1 (stereo not given), which Potency is on record?
Its Potency is inconclusive: 14.1 µM [inhibitor, partial curve, poor fit].

With Fc1ccc(-c2cc(CC3(NC4CCCCC4)COC3)no2)cc1 as the molecule, how does the Potency read?
Its Potency is inconclusive: 31.6 µM [inhibitor, single point].

For O=C1CC(c2ccccc2)N(Cc2ccncc2)CCCN(C(=O)C2CCC2)CCN1 (stereo not given), which Potency is on record?
The Potency was inconclusive: 15.8 µM [inhibitor, single point].

For COc1cccc(Nc2ccc(CN3CCC(C)(NC(C)=O)C3)cc2)c1 (stereo not given), which Potency is on record?
Its Potency is inconclusive: 10 µM [inhibitor, partial curve, poor fit].

Which Potency does the source give for c1ccc(-c2noc(-c3ccn4c(CN5CCSCC5)nnc4c3)n2)cc1 here?
The Potency was inconclusive: 0.316 µM [inhibitor, full curve, poor fit].

Which Potency does the source give for COc1ccccc1CN1Cc2cc(NC(=O)c3ccc(Cl)cc3)ccc2OC(C)C1=O (stereo not given) here?
The Potency was inconclusive: 2.24 µM [inhibitor, partial curve, poor fit].

For COc1cc(C(=O)N2CCc3c([nH]c4ccccc34)C2c2ccc(C)cc2)cc(OC)c1OC (stereo not given), which Potency is on record?
The Potency was inconclusive: 15.8 µM [inhibitor, single point].

With Cc1ccc(C(=O)N[C@@H]2CN(Cc3ccncc3)C[C@H]2CN(C)C)cc1C as the molecule, how does the Potency read?
Its Potency is inconclusive: 10 µM [inhibitor, single point].

For Nc1c(-c2nc(-c3ccc4c(c3)OCO4)cs2)c2ccccn2c1C(=O)c1ccccc1, which Potency is on record?
The Potency was inconclusive: 11.2 µM [inhibitor, single point].

Which Potency does the source give for CCCCn1c(NCc2cc(Cl)ccc2O)nc2ccccc21 here?
Its Potency is active: 3.16 µM.

For CN(C)CCOCC1(C)COc2ccc(C(=O)Nc3ccc4[nH]ccc4c3)cc2N1 (stereo not given), which Potency is on record?
The Potency was inconclusive: 25.1 µM [inhibitor, partial curve, poor fit].

Which “activity, negative = inhibition” value does the source give for CS(=O)(=O)N1CCC2(CC1)CC(CC(=O)NCCCn1cccn1)CCO2 (stereo not given) here?
The value was inactive: 44.6%.

With CN(Cc1nc(-c2ccccc2)cs1)C(=O)COc1ccc(F)cc1F as the molecule, how does the “activity, negative = inhibition” value read?
Its value is inactive: -11.7%.

Which “activity, negative = inhibition” value does the source give for COC(=O)c1ccc2nc(C[C@@H]3C[C@@H](C(C)C)[C@H](CNCc4ccc(NC(C)=O)cc4)C=C3C)[nH]c2c1 here?
The value was inactive: -6.51%.

For O=C(CCc1ccccc1)N1CCC2(CC1)CC(N(Cc1ccccc1)C1CC1)CCO2 (stereo not given), which Potency is on record?
The Potency was inconclusive: 17.8 µM [inhibitor, single point].

For CNC(=O)CCn1ncc2cc(OCc3ccccc3-c3ccccc3F)ccc21, which Potency is on record?
Its Potency is inconclusive: 2.51 µM [inhibitor, partial curve, poor fit].

Which Potency does the source give for CCOc1ccc(CCNC(=O)CCc2c(C)nc3cc(-c4ccccc4OC)nn3c2C)cc1 here?
The Potency was inconclusive: 12.6 µM [inhibitor, partial curve, poor fit].

Which Potency does the source give for CCCOc1ccc(C(=O)Nc2ccc(Cl)c(-c3nc4ncccc4o3)c2)cc1 here?
Its Potency is inconclusive: 17.8 µM [inhibitor, single point].

For CCC1Oc2ccc(NC(=O)COc3ccccc3)cc2CN(Cc2ccccc2Cl)C1=O (stereo not given), which Potency is on record?
Its Potency is inconclusive: 3.16 µM [inhibitor, single point].

With CC(=O)Nc1ccc(CN2C(=O)OC3(CCN(Cc4ccc(C#N)cc4)CC3)C2(C)c2ccccc2)cc1 (stereo not given) as the molecule, how does the “activity, negative = inhibition” value read?
Its value is inactive: -22.9%.

Which Potency does the source give for O=C([C@@H]1C[C@H](F)CN1S(=O)(=O)c1cc(F)ccc1F)N1CCCCC1 here?
The Potency was inconclusive: 20 µM [inhibitor, single point].

With Cc1nc2scc(C)n2c(=O)c1S(=O)(=O)N1CCN(c2cccc(C(F)(F)F)c2)CC1 as the molecule, how does the Potency read?
Its Potency is inconclusive: 17.8 µM [inhibitor, single point].

For CN(Cc1cncs1)C1CCCc2ccccc21 (stereo not given), which Potency is on record?
The Potency was inconclusive: 22.4 µM [inhibitor, single point].

Which Potency does the source give for COc1ccc(C(CC(=O)NCCc2ccccc2)c2c[nH]c3ccccc23)cc1OC (stereo not given) here?
Its Potency is inconclusive: 1.58 µM [inhibitor, partial curve, poor fit].

With CC(C)(C)c1coc([C@@H]2COCCN2Cc2ccc(Cl)cc2)n1 as the molecule, how does the Potency read?
Its Potency is inconclusive: 15.8 µM [inhibitor, partial curve].

Which Potency does the source give for O=C(NC(C(=O)N1CCCC1)C1CCN(C(=O)c2ccccc2)CC1)c1ccc(F)cc1 (stereo not given) here?
Its Potency is inconclusive: 0.355 µM [inhibitor, partial curve, poor fit].

With O=C(CCCCCn1c(=O)[nH]c2ccccc2c1=O)NCc1ccccc1 as the molecule, how does the Potency read?
The Potency was active: 10 µM.

With O=C(C1CCCN(S(=O)(=O)c2cccc3nsnc23)C1)N1CCN(c2ccccc2Cl)CC1 (stereo not given) as the molecule, how does the Potency read?
The Potency was inconclusive: 17.8 µM [inhibitor, single point].

For OCCC#Cc1ccc(CN2CCC(CO)(Cc3ccccc3Cl)CC2)cc1, which Potency is on record?
Its Potency is inconclusive: 17.8 µM [inhibitor, single point].

Which “activity, negative = inhibition” value does the source give for Cc1cccc(N(C)c2ccc3cc(S(=O)(=O)N4CCCC4)ccc3n2)c1 here?
Its value is inactive: 2.06%.

Which “activity, negative = inhibition” value does the source give for Cn1cccc1CN1CCC2(CC(c3cccc(C(F)(F)F)c3)=NO2)C1 (stereo not given) here?
Its value is inactive: 8.11%.

For NC(=O)c1nc(CN2CCCC(C(=O)Nc3cccc(-n4cccn4)c3)C2)no1 (stereo not given), which “activity, negative = inhibition” value is on record?
Its value is inactive: -23.6%.

Which “activity, negative = inhibition” value does the source give for COc1ccc(-c2ccnc(-c3nnc(C)n3C3CCCCC3)c2)cc1OC here?
Its value is inactive: -1.18% [at 44.1 µM].

Which Potency does the source give for O=C(Cc1ccc(Cl)cc1)N1CCC(N2CCCCCC2=O)CC1 here?
The Potency was inconclusive: 0.316 µM [inhibitor, partial curve, poor fit].

Which Potency does the source give for O=C1[C@@H]2C[C@@H](CN2Cc2ccc(F)c(F)c2)Oc2ccccc2N1Cc1ccccn1 here?
The Potency was inconclusive: 11.2 µM [inhibitor, partial curve, poor fit].

Which Potency does the source give for O=C(COc1ccccc1)N1CCC(n2cc(-c3nc(-c4ccccc4)no3)nn2)CC1 here?
Its Potency is inconclusive: 3.98 µM [inhibitor, partial curve, poor fit].

Which Potency does the source give for COc1ccccc1CNC(=O)CCC1N=C2c3ccccc3N=C(SCc3ccc(C)cc3)N2C1=O (stereo not given) here?
Its Potency is inconclusive: 3.98 µM [inhibitor, partial curve].

For COc1ccc(CN2C[C@@H](C(N)=O)[C@H](c3nc(C)no3)C2)c(Cl)c1OC, which “activity, negative = inhibition” value is on record?
Its value is inactive: -3.42%.

Which “activity, negative = inhibition” value does the source give for COc1cccc(C2C(C(=O)Nc3ccc(C)cc3C)=C(C)Nc3nc4ccccc4n32)c1OC (stereo not given) here?
Its value is inactive: -11.7%.

With CCCCC(=O)N(CCC)CC1CCOC1 (stereo not given) as the molecule, how does the activity, negative = inhibition read?
The activity, negative = inhibition was inactive: 14.1% [at 5.79 µM].

For COc1ccc(C(=O)N2CCC(N3C(=O)C4(CCCCC4)C3c3ccccc3)CC2)cn1 (stereo not given), which Potency is on record?
Its Potency is inconclusive: 3.98 µM [inhibitor, single point].

For COc1ccccc1-c1cc(-c2cn[nH]c2)c2cncn2c1, which Potency is on record?
The Potency was active: 12.6 µM.

For COc1ccc(N2CCN(CCCNC(=O)Cn3c(-c4cccs4)cc4ccccc43)CC2)cc1, which Potency is on record?
The Potency was active: 11.2 µM.

Which “activity, negative = inhibition” value does the source give for CCN1CCN(C(=O)C2CCCN(C(=O)c3ccccc3)CCC(=O)NCC2)CC1 (stereo not given) here?
Its value is inactive: 13.4%.

For CCOc1cc(C(=O)N2CCn3c4c(c5cc(C)ccc53)CCCC42)cc(OCC)c1OCC (stereo not given), which Potency is on record?
Its Potency is inconclusive: 2.51 µM [inhibitor, full curve, poor fit].

For CCOc1ccc2c(n1)CCN(C(=O)Cc1c[nH]c3ccccc13)C2, which Potency is on record?
The Potency was inconclusive: 12.6 µM [inhibitor, single point].

With COc1cccc(N2C(=O)NC(=NC3CCCC3)C23CCCN(CC2CC2)C3)c1 (stereo not given) as the molecule, how does the Potency read?
Its Potency is inconclusive: 14.1 µM [inhibitor, partial curve, poor fit].

With CC(C)n1cc(CN2CCCCCNC(=O)[C@@H]3CCC[C@@H]32)c2ccccc21 as the molecule, how does the “outcome” value read?
The value was “inactive”.

With O=C(CN1C(=O)NC2(CCS(=O)(=O)CC2)C1=O)NCc1ccccc1Cl as the molecule, how does the “activity, negative = inhibition” value read?
The value was inactive: 188%.

For COCc1cc(C[C@H]2CNCC[C@H]2CC(=O)N2CCc3cc(OC)c(OC)cc3C2)no1, which “outcome” value is on record?
The value was “inactive”.

With O=C(c1ccc[nH]1)N1CCCC(n2cc(-c3nc(C4CC4)no3)nn2)C1 (stereo not given) as the molecule, how does the “activity, negative = inhibition” value read?
The value was inactive: -0.767%.

For CC(C)CNC(=O)N1CCC(Oc2ncccc2C(=O)N2CCOCC2)C1 (stereo not given), which “activity, negative = inhibition” value is on record?
The value was inactive: 24.1%.

For COCCc1noc([C@@H]2CN(Cc3ccccc3C#N)C[C@H]2CO)n1, which Potency is on record?
The Potency was inconclusive: 12.6 µM [inhibitor, partial curve, poor fit].

Which Potency does the source give for Cc1nc(-c2ccc(Cl)cc2)n(Cc2ccccc2F)c(=O)c1CCO here?
The Potency was inconclusive: 17.8 µM [inhibitor, single point].

With C[S+](=O)([O-])N1Cc2ccccc2CC12CN(C(=O)c1ccc(C(F)(F)F)cc1)C2 as the molecule, how does the Potency read?
Its Potency is inconclusive: 17.8 µM [inhibitor, single point].

With CC(=O)Oc1c(-c2ccc(NC(=O)C3CC3)cc2)c(-c2ccccc2F)nn1-c1ccccc1 as the molecule, how does the Potency read?
The Potency was inconclusive: 3.98 µM [inhibitor, single point].
